Data: publication PMC7819943, “Rice protein-binding microarrays: a tool to detect cis-acting elements near promoter regions in rice”
The other results are listed elsewhere or left out.

biological target: T1, OsWOX13 (Oryza sativa, UniProt Q5QMM3 1-267); experiment: protein-binding microarray (RPBM); PBS, 2% BSA, 51.3 ng/ul salmon testes DNA, 50 uM zinc acetate, 200 nM TF, 25 C, 1 h; high values mean tight binding; conditions: protein: recombinant; tags: N-terminal polyhistidine and DsRed monomer fusion (pET32a); label: CyDye5-dUTP incorporated in the synthesized complementary strand; 3' TTTTT single-stranded linker to array surface; dsDNA, one strand shown
T1 sequence: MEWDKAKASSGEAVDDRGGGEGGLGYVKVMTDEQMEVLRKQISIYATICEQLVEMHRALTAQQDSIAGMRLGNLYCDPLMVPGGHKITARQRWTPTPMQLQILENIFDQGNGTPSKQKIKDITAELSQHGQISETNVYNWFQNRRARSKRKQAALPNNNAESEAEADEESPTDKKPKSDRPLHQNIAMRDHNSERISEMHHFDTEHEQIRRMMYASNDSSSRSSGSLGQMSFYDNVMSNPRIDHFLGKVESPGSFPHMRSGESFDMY
Procedure, shortened: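 Using Ni–NTA, transcription factors fused N-terminally to polyhistidine and DsRed were purified after expression in E. coli BL21-CodonPlus. These were incubated at 200 nM with a blocked, double-stranded custom Agilent array for 1 h at 25 °C in a buffer containing 50 µM zinc acetate, and the array was washed. The binding signal is per-feature fluorescence intensity (arbitrary units) on an Axon 4000B scanner.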

Sequence	binding signal
TTTCTTAATCACGTCATTTATTCAATTTGACTTAGCCCGGCGGAGTCACCTAGTGCAG	15600 fluorescence intensity (a.u.)
GGTTGACAGTAAATTCCCCAAATGGCTTTGACAGACAAATCGGAGTCACCTAGTGCAG	19400 fluorescence intensity (a.u.)
GTAACAGGTAAACTGAAGATTACAGTGACGCATATTCACACGGAGTCACCTAGTGCAG	4460 fluorescence intensity (a.u.)
TAGCTCCAAATCATTTATAGTCAATGTAATAGCCAATTCACGGAGTCACCTAGTGCAG	4170 fluorescence intensity (a.u.)
ATAAACTACATTCTAACTAAAACAGTAATATTGATGGCCACGGAGTCACCTAGTGCAG	3530 fluorescence intensity (a.u.)
GACGATTTAATCACAAGAATTTTGAGTATCTTGCACTCGTCGGAGTCACCTAGTGCAG	3250 fluorescence intensity (a.u.)
TTGTGATTAGCCACATCAACCAAAAGCCTGTGTGTTTTGTCGGAGTCACCTAGTGCAG	41900 fluorescence intensity (a.u.)
GGTAAATATAATAAATTATTGATCTAACAACTTGAAATTACGGAGTCACCTAGTGCAG	3460 fluorescence intensity (a.u.)
CTTAAGTGATTGCAAACACAGTCCTTCACATTACAACTTGCGGAGTCACCTAGTGCAG	47000 fluorescence intensity (a.u.)
CGCTTTGCTAATTGCTAGCACAACTCGAATGTGCTGGATCCGGAGTCACCTAGTGCAG	10400 fluorescence intensity (a.u.)
TAAACATCTGATTAGCTAAAAGTGTTTAATTAGATTTCCACGGAGTCACCTAGTGCAG	21800 fluorescence intensity (a.u.)
ACACCAATTATGTTCAGAAGAATAAGACTCCATTTGAAGACGGAGTCACCTAGTGCAG	3670 fluorescence intensity (a.u.)
GAGCAAATAAGTTTATTGATAGAAATAAATTTACCCTATACGGAGTCACCTAGTGCAG	3900 fluorescence intensity (a.u.)
CCAATTTTACTAAATTAAAACTATGCCACTGACGTCACCTCGGAGTCACCTAGTGCAG	4770 fluorescence intensity (a.u.)
AAACCCCTTACTAATTTATTAATTTATAAACAACAATTTACGGAGTCACCTAGTGCAG	5720 fluorescence intensity (a.u.)
TTATCGAACATACTAATTGACTCTCAGGGAGTCAAGGATCCGGAGTCACCTAGTGCAG	7680 fluorescence intensity (a.u.)
GCCAAATTATTGTCAGCTGAATGTGGGCGATGATGCTTTTCGGAGTCACCTAGTGCAG	15000 fluorescence intensity (a.u.)
CCTAATTGACACTACCCTTAAATTTAAGAACTAATCATGTCGGAGTCACCTAGTGCAG	31700 fluorescence intensity (a.u.)
TATATTTTAGGTTCAATCATTAGTACACAAATTTTAAATACGGAGTCACCTAGTGCAG	3280 fluorescence intensity (a.u.)
TCTTTGTCAATCTTGTTTGGTTGCTCAAATCTTTTGGTGGCGGAGTCACCTAGTGCAG	7260 fluorescence intensity (a.u.)
GAATAATTTATTAAATAATTTATAAATCCTGAAACGAAAACGGAGTCACCTAGTGCAG	7340 fluorescence intensity (a.u.)

Sequence	binding signal
TCAGATTGTTTGCTTTAAATATGAGCAACAATTCGTCTATCGGAGTCACCTAGTGCAG	3420 fluorescence intensity (a.u.)
TTATACTGGATTATATTGTTATTTTGTTACATCATCATCACGGAGTCACCTAGTGCAG	3560 fluorescence intensity (a.u.)
CTAATGAGCCTAATTAATCCATGATTAGCCTATGTGATGCCGGAGTCACCTAGTGCAG	43000 fluorescence intensity (a.u.)
GCAATATAGAATTAGATTAGATATATCCCTCGTACACCCTCGGAGTCACCTAGTGCAG	5060 fluorescence intensity (a.u.)
CTACAAAAGCACAACTAATTGGCTGAAATGAAGAGATGGCCGGAGTCACCTAGTGCAG	6700 fluorescence intensity (a.u.)
GTCCATGATTAGCCATAAGTGCTACAGCAACACACACGTGCGGAGTCACCTAGTGCAG	22800 fluorescence intensity (a.u.)
GATGTTAAGTTTTGGGCATATGATTGAATTGTCTTATATACGGAGTCACCTAGTGCAG	4180 fluorescence intensity (a.u.)
ACGATGAGTTCAGATTGAAAATGTTTACAATATTGATGTTCGGAGTCACCTAGTGCAG	3690 fluorescence intensity (a.u.)
ATTATTGACAGGGACCAATCAACCAATGTTACGAACGCGCCGGAGTCACCTAGTGCAG	51800 fluorescence intensity (a.u.)
AAACTGTTTTAATAATAGATAGATAGATAGATAGATAGATCGGAGTCACCTAGTGCAG	18200 fluorescence intensity (a.u.)
AAACAAACTAATTGGTTGTCCCATCTGGAAAGGACATCTTCGGAGTCACCTAGTGCAG	15400 fluorescence intensity (a.u.)
ATATAAATTAAAATATTTTACAGGAATTTCATAGAAACCCCGGAGTCACCTAGTGCAG	7860 fluorescence intensity (a.u.)
CTAAACAATCAACAATGGCCATTTCTTTTAATCTTCTCTGCGGAGTCACCTAGTGCAG	13300 fluorescence intensity (a.u.)
CATCATGATTTGATGATGGATTAATTATGCTTAATAAATTCGGAGTCACCTAGTGCAG	55300 fluorescence intensity (a.u.)
TAATGATGGTAGTATGATTATGTCAAACATGATCTCAACTCGGAGTCACCTAGTGCAG	6350 fluorescence intensity (a.u.)
TGTGGTTGTGGGAGGTGATTCAATCAGGGGCAAAAGGTGACGGAGTCACCTAGTGCAG	4860 fluorescence intensity (a.u.)
TGTATTAATTTGATGGAGGTATATTCACCATCTCAAGTGACGGAGTCACCTAGTGCAG	17400 fluorescence intensity (a.u.)
GTATGAATGAGCTATTAGATTGGCTATATATGAATTGGAGCGGAGTCACCTAGTGCAG	24700 fluorescence intensity (a.u.)
TCTGTTCCATATTAATTGACGTTTTGAATAAAGTTGAGATCGGAGTCACCTAGTGCAG	22000 fluorescence intensity (a.u.)
GGATTAATTAGTCTCAAAAGATTCGTCTCGCGGTTTCCAGCGGAGTCACCTAGTGCAG	33000 fluorescence intensity (a.u.)
TCCAAATTATCCTGACAGATCTTAAAACACAGCCCATCACCGGAGTCACCTAGTGCAG	17900 fluorescence intensity (a.u.)

Sequence	binding signal
TCATTTATTACATTAATCACGTGCTCAAGTTACCCCTAAGCGGAGTCACCTAGTGCAG	6120 fluorescence intensity (a.u.)
CGCATGACAATCACGCTACCCTCCCCGTCCCGAATACCGACGGAGTCACCTAGTGCAG	3750 fluorescence intensity (a.u.)
ATTCCAATTTAATGGGATTTATATAGGTTGTTAGGACTTTCGGAGTCACCTAGTGCAG	6330 fluorescence intensity (a.u.)
ATTTTCCATTGTCAATTGTACCAATTAAGATGCACAGACCCGGAGTCACCTAGTGCAG	6670 fluorescence intensity (a.u.)
TCTCTTCTCTACCAATCATATTTATTCTTCATCTATTATGCGGAGTCACCTAGTGCAG	3550 fluorescence intensity (a.u.)
ATAAACACGGACCAAAATTTAAATTAAGGGAATTGACAGGCGGAGTCACCTAGTGCAG	19800 fluorescence intensity (a.u.)
CATGGATAGGATAATCGTAACAATTATCTAGACAGTGATGCGGAGTCACCTAGTGCAG	4950 fluorescence intensity (a.u.)
ACATTTGTGATTTTCCTAGGTAATGGTGAGATTTTATAGGCGGAGTCACCTAGTGCAG	3220 fluorescence intensity (a.u.)
CAAAATAAACAATCTAGGGCAATTTTACTATCCTTAAGAACGGAGTCACCTAGTGCAG	3480 fluorescence intensity (a.u.)
AAAACAAACCCAGCCTAATTGGAAATGTGACATTAACTAGCGGAGTCACCTAGTGCAG	8030 fluorescence intensity (a.u.)
ACATGACTAATCTTATTGACTTAAGAGCTGATTAGGATACCGGAGTCACCTAGTGCAG	20200 fluorescence intensity (a.u.)
AATTAATTGAGCCAGAGTGCCAGAGCAGAAGGAGACGGTGCGGAGTCACCTAGTGCAG	26200 fluorescence intensity (a.u.)
GTGTTGATCTGATGGATGCAGCAATTTGCTGCTGTTGTCGCGGAGTCACCTAGTGCAG	3740 fluorescence intensity (a.u.)
TTTATTGATTAAACATAATGGTTACAATCCCGCAAAATAACGGAGTCACCTAGTGCAG	15900 fluorescence intensity (a.u.)
ACCCTATTTTAATTACCACATTATATGCATACATTTCATGCGGAGTCACCTAGTGCAG	8300 fluorescence intensity (a.u.)
ATTTATGATTAACATATATTATTATGTACAAGTAGGTGATCGGAGTCACCTAGTGCAG	24500 fluorescence intensity (a.u.)
AATAAAATTATCGATATTATGTTCGGTTTTCCTTCATACACGGAGTCACCTAGTGCAG	3410 fluorescence intensity (a.u.)
CTTTAGATCTGATTAAGTTTGAATGAAAATTTAGCTATATCGGAGTCACCTAGTGCAG	6620 fluorescence intensity (a.u.)
CTAACTTGATTAAAAGAGATCCATATAACAGAATTTCAAACGGAGTCACCTAGTGCAG	5620 fluorescence intensity (a.u.)
ATCGTGTAATTTTATTACAGTTATATCAAACACAAGGGAACGGAGTCACCTAGTGCAG	4950 fluorescence intensity (a.u.)
ATTTAAGATGTGATTGAAGAACTCAAAAGCCTGTAATATCCGGAGTCACCTAGTGCAG	15700 fluorescence intensity (a.u.)

Sequence	binding signal
TTTACAAATTACAAATGTTCTTACATAATATAATCAACCTCGGAGTCACCTAGTGCAG	6470 fluorescence intensity (a.u.)
GTAGTGTGATGGATGATCGATGGTGGTGACCCATTACCAACGGAGTCACCTAGTGCAG	3880 fluorescence intensity (a.u.)
CATAATTTCATTAATAGTTATAATATTTTAAGTATATATTCGGAGTCACCTAGTGCAG	6800 fluorescence intensity (a.u.)
GTATGGGAATTGATTGCTAGACTAGTGTACAAAAGCTGGGCGGAGTCACCTAGTGCAG	40300 fluorescence intensity (a.u.)
GAAATGGTTGAGTTAATTGTTATCTTTACAGACTGGTACACGGAGTCACCTAGTGCAG	9740 fluorescence intensity (a.u.)
ACGCGTGATTAATGGTTAACAGATTAAGGTCAAGCGAAATCGGAGTCACCTAGTGCAG	44700 fluorescence intensity (a.u.)
ATGAAAGGAGTTGATTTGCACCGGTTTTCAAAGATGAAAACGGAGTCACCTAGTGCAG	3470 fluorescence intensity (a.u.)
TTAACAATATTTTAATGATTGCTCTTGTGCTTAGAAAATTCGGAGTCACCTAGTGCAG	5300 fluorescence intensity (a.u.)
ATTCGACCACTAATTAAGGGAGTCAATGTGAACTTATTCCCGGAGTCACCTAGTGCAG	3290 fluorescence intensity (a.u.)
AAATATCAATCTCCGTCCACAAATATAAGAAAACCCTGACCGGAGTCACCTAGTGCAG	4160 fluorescence intensity (a.u.)
TCTTACCAAGTCAATCGCCAATCACGGCTGTCCATACGGACGGAGTCACCTAGTGCAG	11900 fluorescence intensity (a.u.)
ATTTCGGCAAAATTGAAACCGATTGATCTCATTATTTCCTCGGAGTCACCTAGTGCAG	3810 fluorescence intensity (a.u.)
ATAATTTGGTCCCATCATAATTAATGTGGTAATTTATATGCGGAGTCACCTAGTGCAG	17800 fluorescence intensity (a.u.)
TTTCTCTCCAAATTAATTTTGTGACTGTCTTATGATAGAGCGGAGTCACCTAGTGCAG	22800 fluorescence intensity (a.u.)
CTGCTCCATGACAACTGATCAATTAAGGAAGACTATACAACGGAGTCACCTAGTGCAG	5710 fluorescence intensity (a.u.)
AATTATTTGTTTGTAATTATTGTAGTTTGTGTGGGTACAACGGAGTCACCTAGTGCAG	7520 fluorescence intensity (a.u.)
TCAAATTTTAATAAATATATAGGAAATCCTGTCAAAATTTCGGAGTCACCTAGTGCAG	5180 fluorescence intensity (a.u.)
CAGACTTAACAATAATTTTATCATAGAACTATAGATTAAGCGGAGTCACCTAGTGCAG	6950 fluorescence intensity (a.u.)
TTAACTAAGGGTAAATTGGAACCATGCTATTATAATTTTGCGGAGTCACCTAGTGCAG	11700 fluorescence intensity (a.u.)
CGTACCAAACTTAATTAGGGCTCGAGCTAATTAACTAACTCGGAGTCACCTAGTGCAG	6670 fluorescence intensity (a.u.)
TCTAAATCATAACTTAATAGCCAATTCATACAATAGTTATCGGAGTCACCTAGTGCAG	10200 fluorescence intensity (a.u.)
